Experimental data reported in the BET-seq Pho4 binding data (Le et al. 2018).
The list shows a part of the results. These are noisy estimates, calculated here from bound and input reads.

What follows are sequences tested against T1, Pho4 (S. cerevisiae) (UniProt P07270) (assay: relative binding free energy (BET-seq); higher = weaker binding). Conditions: reference: library average.
T1 sequence: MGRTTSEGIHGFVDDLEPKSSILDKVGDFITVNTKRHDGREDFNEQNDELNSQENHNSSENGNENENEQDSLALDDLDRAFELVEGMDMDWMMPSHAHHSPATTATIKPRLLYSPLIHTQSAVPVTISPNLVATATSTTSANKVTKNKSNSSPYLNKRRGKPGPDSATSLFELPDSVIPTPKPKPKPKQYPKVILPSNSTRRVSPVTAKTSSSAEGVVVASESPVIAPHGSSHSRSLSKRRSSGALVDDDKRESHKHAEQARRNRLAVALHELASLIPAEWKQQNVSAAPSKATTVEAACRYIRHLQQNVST

Sequence	relative binding free energy
AAAGGCACGTGGGATG	-0.14 kcal/mol
GATTTCACGTGGAGAA	0.46 kcal/mol
TGTGGCACGTGATTAG	0.02 kcal/mol
AATGGCACGTGAAGAG	0.2 kcal/mol
ATTTTCACGTGAGAAT	0.38 kcal/mol
ATCGGCACGTGGCGGT	-0.18 kcal/mol
TGCATCACGTGTCTGG	0.2 kcal/mol
TGCGACACGTGTTCGG	0.12 kcal/mol
ATGGTCACGTGGGTTT	0.01 kcal/mol
TGGTACACGTGTGCTT	-0.02 kcal/mol
TGTGGCACGTGTGAAT	0.02 kcal/mol
AGGTTCACGTGGCTGT	0.28 kcal/mol
TAGGCCACGTGGGTGA	-0.33 kcal/mol
CGTTCCACGTGTGGCG	0.17 kcal/mol
GCAATCACGTGGGGGA	0.03 kcal/mol
GGTTACACGTGTAAGC	0.32 kcal/mol
GCATTCACGTGGTTGT	0.26 kcal/mol
GCTGGCACGTGGGCGT	-0.06 kcal/mol
TTAATCACGTGAGTTA	0.37 kcal/mol
ATTAGCACGTGTTTAT	-0.12 kcal/mol
AGTTTCACGTGAGCTG	0.49 kcal/mol
GACTGCACGTGGTTTG	-0.1 kcal/mol
CTGGACACGTGTTATG	0.03 kcal/mol
GCTGTCACGTGGGCTG	0 kcal/mol
ATATACACGTGCTGTG	-0.11 kcal/mol
TGTTTCACGTGTCTTA	0.3 kcal/mol

Sequence	relative binding free energy
GTTAGCACGTGAAAGG	0.23 kcal/mol
CGCTGCACGTGTGGTG	-0.01 kcal/mol
GATTTCACGTGCTTTG	0.23 kcal/mol
TACTTCACGTGGGGGC	0.26 kcal/mol
GATAGCACGTGGGTAG	-0.15 kcal/mol
CTTTTCACGTGAGGGC	0.41 kcal/mol
AATGGCACGTGGCAGG	-0.1 kcal/mol
TATTCCACGTGTATAG	0.19 kcal/mol
GTTGGCACGTGTAGCT	-0.01 kcal/mol
ATGAGCACGTGCTGTT	-0.13 kcal/mol
ATCGGCACGTGCTAGG	0.02 kcal/mol
TATGACACGTGGCTGG	-0.16 kcal/mol
GTTCTCACGTGGGTAG	0.24 kcal/mol
TGTTTCACGTGATCTC	0.23 kcal/mol
GTCGTCACGTGTTGGG	0.17 kcal/mol
GCTTGCACGTGGTGCT	-0.08 kcal/mol
TTTTGCACGTGGGGAA	-0.07 kcal/mol
TTATTCACGTGAAGAA	0.42 kcal/mol
TGGAACACGTGTGCAT	0 kcal/mol
TTGACCACGTGGGTTG	-0.21 kcal/mol
CTTTACACGTGATGGT	0.17 kcal/mol
TGGTACACGTGTGCGG	0.06 kcal/mol
TTTGCCACGTGCAGTT	0 kcal/mol
GGCTTCACGTGGGCGG	0.07 kcal/mol
AAGTGCACGTGGCGAT	-0.14 kcal/mol
GGGGGCACGTGGAGAT	-0.08 kcal/mol

Sequence	relative binding free energy
GTTGGCACGTGTGCTC	-0.06 kcal/mol
AGTGGCACGTGGCGGT	-0.12 kcal/mol
AATTGCACGTGGTGCT	-0.1 kcal/mol
TAGTGCACGTGAAAGA	0.22 kcal/mol
TGCGGCACGTGGTCAG	-0.3 kcal/mol
AGTAGCACGTGTCGCG	-0.05 kcal/mol
TGTAACACGTGAGCTT	0.23 kcal/mol
TCAGGCACGTGAGGGG	0.1 kcal/mol
GTGCGCACGTGTAGAG	0.03 kcal/mol
TCTGGCACGTGTAGCG	-0.07 kcal/mol
CGTTTCACGTGGATTG	0.31 kcal/mol
GAGTGCACGTGCAGGG	-0.04 kcal/mol
TCTTTCACGTGTGGTA	0.28 kcal/mol
CGCTACACGTGTGGGG	-0.06 kcal/mol
ATACACACGTGTGGGT	-0.03 kcal/mol
GAAAGCACGTGGTAGG	-0.19 kcal/mol
TATATCACGTGTGTCT	0.13 kcal/mol
TACGTCACGTGTTAAG	0.11 kcal/mol
ATAGGCACGTGTGTAG	-0.17 kcal/mol
TTGTTCACGTGCTTGA	0.17 kcal/mol
TTGATCACGTGCTTTT	0.1 kcal/mol
TAGTACACGTGGTATA	-0.05 kcal/mol
ATTGTCACGTGTATAT	0.15 kcal/mol
GTGGGCACGTGATACG	-0.04 kcal/mol
GAGGGCACGTGTGTCG	-0.05 kcal/mol
TGATACACGTGGCGTT	-0.13 kcal/mol

Sequence	relative binding free energy
AAATGCACGTGTGTTG	0.01 kcal/mol
TGATTCACGTGGGCCG	0.14 kcal/mol
ATAGTCACGTGCGTTA	-0.13 kcal/mol
TAGGTCACGTGAGGCA	0.21 kcal/mol
ATTGTCACGTGGAGCG	-0.03 kcal/mol
GGAAACACGTGGCGGT	-0.02 kcal/mol
GGTCCCACGTGATGTG	0.07 kcal/mol
GTGCTCACGTGGCTGT	0.17 kcal/mol
AGAGGCACGTGGTCAG	-0.19 kcal/mol
TAAGGCACGTGTTGCG	-0.25 kcal/mol
TAAGGCACGTGGGTTT	-0.19 kcal/mol
CGCGGCACGTGGGTAG	-0.12 kcal/mol
GTTGGCACGTGGGTTA	-0.06 kcal/mol
ATTTGCACGTGCGCTT	-0.15 kcal/mol
TGTCACACGTGGGTTA	0.07 kcal/mol
ATGGACACGTGATTTG	0.27 kcal/mol
GTATACACGTGACGGG	0.13 kcal/mol
TTGGTCACGTGCGAAT	0.1 kcal/mol
AGTAGCACGTGTGGTC	-0.1 kcal/mol
TGATGCACGTGGCGGT	-0.07 kcal/mol
GAAAGCACGTGCGGGA	0.08 kcal/mol
GGTGGCACGTGATCTT	-0.07 kcal/mol
TGAGTCACGTGGTGGG	0.08 kcal/mol
ATATCCACGTGGGGGT	-0.23 kcal/mol
TGACTCACGTGGCGGG	0.21 kcal/mol
TGTGACACGTGCTCTG	0.08 kcal/mol

Sequence	relative binding free energy
TTGGACACGTGGCTAG	0.08 kcal/mol
TAGTGCACGTGGAGGT	-0.02 kcal/mol
GGGGCCACGTGTCTTG	-0.05 kcal/mol
AGTCGCACGTGGCGGT	-0.13 kcal/mol
AACAGCACGTGTGGTT	0.04 kcal/mol
GGGAACACGTGTTAAT	0.15 kcal/mol
TTGCGCACGTGTTGTG	-0.09 kcal/mol
TGTTGCACGTGGAAGG	-0.01 kcal/mol
TGGAACACGTGAGATT	0.35 kcal/mol
TGTTCCACGTGGGATA	-0.15 kcal/mol
GGTTGCACGTGGAATT	0.34 kcal/mol
TGTTTCACGTGGGTAT	0.2 kcal/mol
CGTTTCACGTGGACGG	0.22 kcal/mol
CTGATCACGTGGGTTC	0.16 kcal/mol
ACAGGCACGTGTGGGT	-0.07 kcal/mol
AGATTCACGTGGAAAG	0.37 kcal/mol
GAATGCACGTGGTAAG	-0.03 kcal/mol
GGTTTCACGTGCGTGT	0.33 kcal/mol
TGATACACGTGAGGGT	0.3 kcal/mol
TTTCGCACGTGGATGA	0.01 kcal/mol
GCTTGCACGTGTGAGT	0 kcal/mol
GCAGGCACGTGATAGG	-0.08 kcal/mol
TTGTACACGTGCTTAT	-0.06 kcal/mol
ATAGGCACGTGTAGAG	-0.03 kcal/mol
TTGTCCACGTGGTTCG	-0.11 kcal/mol
CGGGGCACGTGTTTTA	0.01 kcal/mol

Sequence	relative binding free energy
AGTTTCACGTGGATCG	0.28 kcal/mol
TTAAACACGTGTCATG	0.12 kcal/mol
TCGTGCACGTGAGTAT	0.15 kcal/mol
GTATGCACGTGGGCGT	-0.1 kcal/mol
GGGTTCACGTGTTCTT	0.22 kcal/mol
AAGGACACGTGATTTG	0.25 kcal/mol
TTAGACACGTGGTTGG	0.07 kcal/mol
CTAATCACGTGAGGGT	0.22 kcal/mol
GGCAGCACGTGTTAGG	0.01 kcal/mol
ATATGCACGTGTCGTG	-0.09 kcal/mol
TTGAGCACGTGAGTGG	0.12 kcal/mol
GTGTTCACGTGACGGA	0.43 kcal/mol
GGTCACACGTGTTTCG	0.24 kcal/mol
GAATACACGTGTAGAG	0.24 kcal/mol
GTTATCACGTGTGTCT	0.22 kcal/mol
GGGGCCACGTGGGCTG	-0.16 kcal/mol
TTTGTCACGTGAAAGG	0.39 kcal/mol
GAGTTCACGTGAGGCT	0.5 kcal/mol
TCGAACACGTGGGGTG	-0.21 kcal/mol
TGCTTCACGTGCGTTT	0.13 kcal/mol
CATGGCACGTGGTATG	-0.22 kcal/mol
AGTCGCACGTGGGCTG	-0.27 kcal/mol
GATTGCACGTGGGAGT	-0.04 kcal/mol
AGTATCACGTGATCGG	0.09 kcal/mol
TGGATCACGTGGGGAA	0.11 kcal/mol
TGGCACACGTGGCGGA	-0.02 kcal/mol

Sequence	relative binding free energy
GTGTGCACGTGAGTAC	0.15 kcal/mol
GGCAGCACGTGAGCGG	0.15 kcal/mol
GGATTCACGTGGTTGT	0.3 kcal/mol
TAATTCACGTGTCAGG	0.1 kcal/mol
TATGGCACGTGTCTGT	-0.07 kcal/mol
GGTCTCACGTGGAATG	0.26 kcal/mol
TTATGCACGTGGTGCT	-0.16 kcal/mol
TTCAGCACGTGATAGG	-0.09 kcal/mol
TGTAACACGTGGGTAT	-0.13 kcal/mol
TATCGCACGTGGGGTA	-0.26 kcal/mol
TTTTGCACGTGCAGTT	-0.11 kcal/mol
TTTGGCACGTGAAAGC	0.2 kcal/mol
TAAAGCACGTGGTATT	-0.31 kcal/mol
GATGTCACGTGATAGG	0.17 kcal/mol
ATAGGCACGTGTGCGC	-0.09 kcal/mol
TGAAGCACGTGGTAGT	-0.12 kcal/mol
ACAGGCACGTGGAGGG	-0.12 kcal/mol
TCGGTCACGTGGGTAT	-0.06 kcal/mol
TTAAACACGTGCTGGT	-0.2 kcal/mol
AGTATCACGTGCAATT	0.32 kcal/mol
GGGGCCACGTGGAATA	0.14 kcal/mol
TTGGTCACGTGTGGGC	0.12 kcal/mol
ACTGTCACGTGTTGAG	0.16 kcal/mol
GAGGCCACGTGAAGGG	0.19 kcal/mol
GGTGTCACGTGGAACT	0.24 kcal/mol
TTGAACACGTGAGGGT	0.34 kcal/mol

Sequence	relative binding free energy
TGGTACACGTGAATTA	0.15 kcal/mol
TAGTTCACGTGTTGGC	0.24 kcal/mol
AGTATCACGTGGAGGC	0.12 kcal/mol
CGATTCACGTGGTGTT	0.21 kcal/mol
GTTAGCACGTGCTCGT	-0.11 kcal/mol
CAGGGCACGTGTATGG	-0.12 kcal/mol
TTTCTCACGTGTAATG	0.37 kcal/mol
TTTAGCACGTGGTGGC	-0.21 kcal/mol
TAGCGCACGTGGGTCA	-0.27 kcal/mol
GTATGCACGTGTGGAA	0.05 kcal/mol
TTAATCACGTGGTGTA	0.04 kcal/mol
GTTATCACGTGAATTA	0.35 kcal/mol
GTGGCCACGTGACGGG	0.05 kcal/mol
TTATGCACGTGATGGT	-0.01 kcal/mol
CGTAGCACGTGGCGGG	-0.23 kcal/mol
GGAAGCACGTGTTAGG	-0.04 kcal/mol
TGTATCACGTGGTTCG	-0.07 kcal/mol
GGGGTCACGTGCGTGA	0.05 kcal/mol
GATTGCACGTGGGATA	-0.18 kcal/mol
TTGGTCACGTGGTGCT	-0.06 kcal/mol
ATGGTCACGTGATGCT	0.21 kcal/mol
GAGGGCACGTGTGCTA	0.05 kcal/mol
GTCGTCACGTGGTTAG	0.12 kcal/mol
GTAAACACGTGCGTGT	0.11 kcal/mol
CGTGGCACGTGAGCAT	0.14 kcal/mol
GGTGACACGTGATAAG	0.11 kcal/mol

Sequence	relative binding free energy
ATAGGCACGTGGAGTG	-0.11 kcal/mol
TTGGCCACGTGCGGTT	-0.18 kcal/mol
GTGGGCACGTGTAGCG	-0.15 kcal/mol
AGTTACACGTGAGGTA	0.25 kcal/mol
GTTACCACGTGGGTAT	-0.15 kcal/mol
TTCGGCACGTGAGTCT	0.16 kcal/mol
TGTTGCACGTGTCTGC	-0.01 kcal/mol
CAGATCACGTGTTGTG	0.12 kcal/mol
GGTCTCACGTGTTGGC	0.26 kcal/mol
GGGCACACGTGTTGGG	0.06 kcal/mol
CAGAGCACGTGGCGGG	-0.2 kcal/mol
CTTATCACGTGGTATT	0.07 kcal/mol
TCAGTCACGTGGCGTA	0.05 kcal/mol
GGGGGCACGTGGTCCG	-0.19 kcal/mol
GTGGGCACGTGTTAGG	0 kcal/mol
TTGTACACGTGGAGTT	0.07 kcal/mol
AGCAACACGTGGGGTG	-0.18 kcal/mol
AAGATCACGTGCGGGT	0.04 kcal/mol
TGCGTCACGTGGTAGC	0.1 kcal/mol
TTATTCACGTGGGTAA	0.2 kcal/mol
GAGGTCACGTGAAGGC	0.41 kcal/mol
TTAGTCACGTGAGTTT	0.18 kcal/mol
